Measured values: publication PMC8713996, “An anti-tuberculosis compound screen using a zebrafish infection model identifies an aspartyl-tRNA synthetase inhibitor” (Disease Models & Mechanisms, 2021)
≈ marks a conversion by molar mass, not a printed value. Read-outs that look alike come from different tables or passages of the source.

Columns and labels:
E. coli GK1161434 = conditions: zebrafish, in vivo
S. pneumoniae = test: microbe, parasite or virus in culture; conditions: Streptococcus pneumoniae, read-out: MIC90 S. pneumoniae
S. pneumoniae D39V = format: in vivo; conditions: 24 hpt
[1] = tested on: M. marinum-tdTomato yolk-infected zebrafish embryos; conditions: waterborne, 25× to 400× MIC added at 1 dpi, survival at 4 dpi
[2] = tested on: M. marinum-tdTomato yolk-infected zebrafish embryos; conditions: in vivo
[3] = tested on: M. marinum-tdTomato infected zebrafish embryos; format: in vivo; conditions: injected at 1 dpi
Escherichia coli = test: microbe, parasite or virus in culture; format: cell-based
Bacillus subtilis 168 = test: MIC by optical density, Bacillus subtilis
Acinetobacter baumannii = test: MIC by optical density, Acinetobacter baumannii; conditions: LMG01041
[4] = tested on: Klebsiella pneumoniae LMG20218; test: MIC by optical density, Klebsiella pneumoniae
[5] = intravenous injection of 1× or 10× MIC

Structure (SMILES)	Survival of E. coli-infected embryos (E. coli GK1161434)	MIC90 (S. pneumoniae)	Survival of M. marinum-infected embryos [1]	Bacterial load (integrated red fluorescence) in infected embryos vs DMSO [2]	MIC90 (Escherichia coli; read-out: MIC90 E. coli)	further results
Nc1nc(/C(=C/CC(=O)O)C(=O)N[C@@H]2C(=O)N3C(C(=O)O)=CCS[C@H]23)cs1 [ceftibuten]	dose-dependent survival					
CC(C)(O/N=C(\C(=O)N[C@@H]1C(=O)N2C(C(=O)[O-])=C(C[n+]3ccccc3)CS[C@H]12)c1csc(N)n1)C(=O)O [ceftazidime]		0.91 µM (≈ 0.497 µg/mL)				Zebrafish survival (S. pneumoniae D39V; [5]): 100%
[H]/N=C(/N)N[C@H]1[C@H](O)[C@@H](O)[C@H](O[C@@H]2O[C@@H](C)[C@](O)(C=O)[C@H]2O[C@@H]2O[C@@H](CO)[C@H](O)[C@@H](O)[C@@H]2NC)[C@@H](N/C(N)=N\[H])[C@@H]1O [streptomycin]			no activity	did not reduce the bacterial load		Bacterial load after injection of the compound via the caudal vein [3]: significant decrease in the bacterial load
O=c1c2cc(Cl)cc(Cl)c2oc2nc3n(c(=O)c12)CCCS3 [TBA161-C, 9,11-dichloro-3,4-dihydro-chromeno[2′,3′:4,5]pyrimido[2,1-b][1,3]thiazine-6,7-dione]						MIC90 (Escherichia coli): > 80 µM; MIC90 (Bacillus subtilis 168): > 80 µM; MIC90 (Acinetobacter baumannii): > 80 µM; MIC90 [4]: > 80 µM
CO/N=C(\C(=O)N[C@@H]1C(=O)N2C(C(=O)O)=C(CSc3nc(=O)c(=O)[nH]n3C)CS[C@H]12)c1csc(N)n1 [ceftriaxone]		0.05 µM (≈ 0.0277 µg/mL)			0.19 µM (≈ 0.105 µg/mL)	Zebrafish survival (S. pneumoniae D39V; intravenous injection of 10× the MIC): 90%
C[C@H]1COc2c(N3CCN(C)CC3)c(F)cc3c(=O)c(C(=O)O)cn1c23 [levofloxacin]	dose-dependent survival	5.53 µM (≈ 2 µg/mL)	dose-dependent increase in zebrafish survival	did not reduce the bacterial load	0.35 µM (≈ 0.126 µg/mL)	
C[C@@H](O)[C@H]1C(=O)N2C(C(=O)O)=C(S[C@@H]3CN[C@H](C(=O)N(C)C)C3)[C@H](C)[C@H]12 [meropenem]	did not increase the survival	0.29 µM (≈ 0.111 µg/mL)			0.14 µM (≈ 0.0537 µg/mL)	Zebrafish survival (S. pneumoniae D39V; [5]): 100%
C=CC1=C(C(=O)O)N2C(=O)[C@@H](NC(=O)/C(=N\OCC(=O)O)c3csc(N)n3)[C@H]2SC1 [cefixime]	dose-dependent survival					
NC[C@H]1O[C@H](O[C@H]2[C@H](O)[C@@H](O[C@H]3O[C@H](CO)[C@@H](O)[C@H](N)[C@H]3O)[C@H](N)C[C@@H]2N)[C@H](O)[C@@H](O)[C@@H]1O [kanamycin]			no activity	did not reduce the bacterial load		Bacterial load after injection of the compound via the caudal vein [3]: significant decrease in the bacterial load
CC(=O)NC[C@H]1CN(c2ccc(N3CCOCC3)c(F)c2)C(=O)O1 [linezolid]			dose-dependent increase in zebrafish survival	did not reduce the bacterial load		
